Measured values published in the supplement of paper PMC4967469.
The IC50 comes from the fitted curve, where viability falls to half of the control; a limit (>, <) means that the fit lies beyond the doses tested. AUC is the area under the same curve over the 256-fold range up to the top dose, as a fraction; values near 1 show little effect. An inferred top dose was derived from the fitted curves, not read from the paper.

Legend:
Assay in all cases: Viability of human cancer cell lines after 72 h of drug (GDSC screen)
SGC0946 = compound: CC(C)N(CCCNC(=O)Nc1ccc(C(C)(C)C)cc1)C[C@H]1O[C@@H](n2cc(Br)c3c(N)ncnc32)[C@H](O)[C@@H]1O [SGC0946]; conditions: top dose 0.5 µM; top dose inferred
Method: (§1)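 Human cancer cell lines in 384-well plates, medium with 10% serum, drug for 72 h over a 256-fold dose range (nine 2-fold or five 4-fold steps up to the top dose). Adherent lines were fixed and stained with the nucleic acid dye Syto60, suspension lines read with resazurin; signal relative to control wells, capped at 0 and 100%. One two-parameter sigmoid per drug and line, fitted in a mixed model over all curves with the slope shared within a line.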

Bryostatin 1 = compound: CCC/C=C/C=C/C(=O)O[C@H]1/C(=C/C(=O)OC)C[C@H]2C[C@H]([C@@H](C)O)OC(=O)C[C@H](O)C[C@@H]3C[C@H](OC(C)=O)C(C)(C)[C@](O)(C[C@@H]4C/C(=C/C(=O)OC)C[C@H](/C=C/C(C)(C)[C@]1(O)O2)O4)O3 [Bryostatin 1]; conditions: top dose 0.008 µM; top dose inferred
Method: as §1

GW-2580 = compound: COc1ccc(COc2ccc(Cc3cnc(N)nc3N)cc2OC)cc1 [GW-2580]; conditions: top dose 20 µM; top dose inferred
Method: as §1

Lenalidomide = compound: Nc1cccc2c1CN(C1CCC(=O)NC1=O)C2=O [Lenalidomide]; conditions: top dose 5 µM; top dose inferred
Method: as §1

## EW-1 (Ewing sarcoma, semi-adherent)
SGC0946
  AUC: 0.982
  IC50: > 0.5 µM
Bryostatin 1
  AUC: 0.985
  IC50: > 0.008 µM
GW-2580
  AUC: 0.988
  IC50: > 20 µM
Lenalidomide
  AUC: 0.989
  IC50: > 5 µM

## EW-7 (Ewing sarcoma, semi-adherent)
SGC0946
  AUC: 0.988
  IC50: > 0.5 µM
Bryostatin 1
  AUC: 0.989
  IC50: > 0.008 µM
GW-2580
  AUC: 0.975
  IC50: > 20 µM
Lenalidomide
  AUC: 0.988
  IC50: > 5 µM

## FTC-133 (thyroid, adherent)
SGC0946
  AUC: 0.985
  IC50: > 0.5 µM
Bryostatin 1
  AUC: 0.925
  IC50: > 0.008 µM
GW-2580
  AUC: 0.98
  IC50: > 20 µM
Lenalidomide
  AUC: 0.983
  IC50: > 5 µM

## FU97 (stomach, adherent)
SGC0946
  AUC: 0.985
  IC50: > 0.5 µM
Bryostatin 1
  AUC: 0.971
  IC50: > 0.008 µM
GW-2580
  AUC: 0.971
  IC50: > 20 µM
Lenalidomide
  AUC: 0.975
  IC50: > 5 µM

## FU-OV-1 (ovary, adherent)
SGC0946
  AUC: 0.978
  IC50: > 0.5 µM
Bryostatin 1
  AUC: 0.982
  IC50: > 0.008 µM
GW-2580
  AUC: 0.982
  IC50: > 20 µM
Lenalidomide
  AUC: 0.978
  IC50: > 5 µM

## G-292 Clone A141B1 (osteosarcoma, adherent)
SGC0946
  AUC: 0.968
  IC50: > 0.5 µM
Bryostatin 1
  AUC: 0.954
  IC50: > 0.008 µM
GW-2580
  AUC: 0.976
  IC50: > 20 µM
Lenalidomide
  AUC: 0.95
  IC50: > 5 µM

## G-361 (melanoma, adherent)
SGC0946
  AUC: 0.982
  IC50: > 0.5 µM
Bryostatin 1
  AUC: 0.887
  IC50: > 0.008 µM
GW-2580
  AUC: 0.972
  IC50: > 20 µM
Lenalidomide
  AUC: 0.988
  IC50: > 5 µM

## G-401 (kidney, adherent)
SGC0946
  AUC: 0.982
  IC50: > 0.5 µM
Bryostatin 1
  AUC: 0.933
  IC50: > 0.008 µM
GW-2580
  AUC: 0.979
  IC50: > 20 µM
Lenalidomide
  AUC: 0.984
  IC50: > 5 µM

## G-402 (soft tissue, adherent)
SGC0946
  AUC: 0.975
  IC50: > 0.5 µM
Bryostatin 1
  AUC: 0.964
  IC50: > 0.008 µM
GW-2580
  AUC: 0.978
  IC50: > 20 µM
Lenalidomide
  AUC: 0.976
  IC50: > 5 µM

## G-MEL (melanoma, adherent)
SGC0946
  AUC: 0.956
  IC50: > 0.5 µM
Bryostatin 1
  AUC: 0.892
  IC50: > 0.008 µM
GW-2580
  AUC: 0.984
  IC50: > 20 µM
Lenalidomide
  AUC: 0.953
  IC50: > 5 µM

## GI-ME-N (neuroblastoma, adherent)
SGC0946
  AUC: 0.973
  IC50: > 0.5 µM
Bryostatin 1
  AUC: 0.928
  IC50: > 0.008 µM
GW-2580
  AUC: 0.973
  IC50: > 20 µM
Lenalidomide
  AUC: 0.973
  IC50: > 5 µM

## GT3TKB (stomach, adherent)
SGC0946
  AUC: 0.989
  IC50: > 0.5 µM
Bryostatin 1
  AUC: 0.971
  IC50: > 0.008 µM
GW-2580
  AUC: 0.986
  IC50: > 20 µM
Lenalidomide
  AUC: 0.99
  IC50: > 5 µM

## H4 (glioma, adherent)
SGC0946
  AUC: 0.985
  IC50: > 0.5 µM
Bryostatin 1
  AUC: 0.857
  IC50: 0.00639 µM
GW-2580
  AUC: 0.987
  IC50: > 20 µM
Lenalidomide
  AUC: 0.982
  IC50: > 5 µM

## H290 (mesothelioma, adherent)
SGC0946
  AUC: 0.988
  IC50: > 0.5 µM
Bryostatin 1
  AUC: 0.989
  IC50: > 0.008 µM
GW-2580
  AUC: 0.872
  IC50: 16.3 µM
Lenalidomide
  AUC: 0.989
  IC50: > 5 µM

## H2369 (mesothelioma, adherent)
SGC0946
  AUC: 0.982
  IC50: > 0.5 µM
Bryostatin 1
  AUC: 0.983
  IC50: > 0.008 µM
GW-2580
  AUC: 0.982
  IC50: > 20 µM
Lenalidomide
  AUC: 0.984
  IC50: > 5 µM

## H2373 (mesothelioma, adherent)
SGC0946
  AUC: 0.981
  IC50: > 0.5 µM
Bryostatin 1
  AUC: 0.967
  IC50: > 0.008 µM
GW-2580
  AUC: 0.96
  IC50: > 20 µM
Lenalidomide
  AUC: 0.983
  IC50: > 5 µM

## H2461 (mesothelioma, adherent)
SGC0946
  AUC: 0.977
  IC50: > 0.5 µM
Bryostatin 1
  AUC: 0.92
  IC50: > 0.008 µM
GW-2580
  AUC: 0.983
  IC50: > 20 µM
Lenalidomide
  AUC: 0.954
  IC50: > 5 µM

## H2595 (mesothelioma, adherent)
SGC0946
  AUC: 0.956
  IC50: > 0.5 µM
Bryostatin 1
  AUC: 0.969
  IC50: > 0.008 µM
GW-2580
  AUC: 0.981
  IC50: > 20 µM
Lenalidomide
  AUC: 0.95
  IC50: > 5 µM

## H2722 (mesothelioma, adherent)
SGC0946
  AUC: 0.982
  IC50: > 0.5 µM
Bryostatin 1
  AUC: 0.974
  IC50: > 0.008 µM
GW-2580
  AUC: 0.983
  IC50: > 20 µM
Lenalidomide
  AUC: 0.983
  IC50: > 5 µM

## H2731 (mesothelioma, adherent)
SGC0946
  AUC: 0.958
  IC50: > 0.5 µM
Bryostatin 1
  AUC: 0.969
  IC50: > 0.008 µM
GW-2580
  AUC: 0.899
  IC50: > 20 µM
Lenalidomide
  AUC: 0.979
  IC50: > 5 µM

## H2795 (mesothelioma, adherent)
SGC0946
  AUC: 0.983
  IC50: > 0.5 µM
Bryostatin 1
  AUC: 0.88
  IC50: > 0.008 µM
GW-2580
  AUC: 0.986
  IC50: > 20 µM
Lenalidomide
  AUC: 0.947
  IC50: > 5 µM

## H2869 (mesothelioma, adherent)
SGC0946
  AUC: 0.978
  IC50: > 0.5 µM
Bryostatin 1
  AUC: 0.973
  IC50: > 0.008 µM
GW-2580
  AUC: 0.974
  IC50: > 20 µM
Lenalidomide
  AUC: 0.972
  IC50: > 5 µM

## H3118 (head and neck, adherent)
SGC0946
  AUC: 0.981
  IC50: > 0.5 µM
Bryostatin 1
  AUC: 0.981
  IC50: > 0.008 µM
GW-2580
  AUC: 0.982
  IC50: > 20 µM
Lenalidomide
  AUC: 0.977
  IC50: > 5 µM

## H3255 (lung adenocarcinoma, adherent)
SGC0946
  AUC: 0.981
  IC50: > 0.5 µM
Bryostatin 1
  AUC: 0.978
  IC50: > 0.008 µM
GW-2580
  AUC: 0.98
  IC50: > 20 µM
Lenalidomide
  AUC: 0.984
  IC50: > 5 µM

## HA7-RCC (kidney, adherent)
SGC0946
  AUC: 0.982
  IC50: > 0.5 µM
Bryostatin 1
  AUC: 0.949
  IC50: > 0.008 µM
GW-2580
  AUC: 0.979
  IC50: > 20 µM
Lenalidomide
  AUC: 0.985
  IC50: > 5 µM

## HAL-01 (lymphoblastic leukaemia, suspension)
SGC0946
  AUC: 0.985
  IC50: > 0.5 µM
Bryostatin 1
  AUC: 0.989
  IC50: > 0.008 µM
GW-2580
  AUC: 0.989
  IC50: > 20 µM
Lenalidomide
  AUC: 0.975
  IC50: > 5 µM

## HARA (lung squamous cell carcinoma, adherent)
SGC0946
  AUC: 0.955
  IC50: > 0.5 µM
Bryostatin 1
  AUC: 0.971
  IC50: > 0.008 µM
GW-2580
  AUC: 0.98
  IC50: > 20 µM
Lenalidomide
  AUC: 0.926
  IC50: > 5 µM

## HC-1 (hairy cell leukaemia, suspension)
SGC0946
  AUC: 0.984
  IC50: > 0.5 µM
Bryostatin 1
  AUC: 0.984
  IC50: > 0.008 µM
GW-2580
  AUC: 0.987
  IC50: > 20 µM
Lenalidomide
  AUC: 0.987
  IC50: > 5 µM

## HCC38 (breast, adherent)
SGC0946
  AUC: 0.984
  IC50: > 0.5 µM
Bryostatin 1
  AUC: 0.98
  IC50: > 0.008 µM
GW-2580
  AUC: 0.984
  IC50: > 20 µM
Lenalidomide
  AUC: 0.986
  IC50: > 5 µM

## HCC70 (breast, adherent)
SGC0946
  AUC: 0.987
  IC50: > 0.5 µM
Bryostatin 1
  AUC: 0.935
  IC50: > 0.008 µM
GW-2580
  AUC: 0.988
  IC50: > 20 µM
Lenalidomide
  AUC: 0.984
  IC50: > 5 µM
